# Experimental data as given in the supplement of paper PMC3334620.
# Whole data set: some 33,000 sequences, median “E-score (-0.5 to 0.5)” near -0.017, cut for the highest 2% near 0.3. The list shows a part of the results.
# Target: T1, Sut1 (UniProt P53032)
# T1 sequence: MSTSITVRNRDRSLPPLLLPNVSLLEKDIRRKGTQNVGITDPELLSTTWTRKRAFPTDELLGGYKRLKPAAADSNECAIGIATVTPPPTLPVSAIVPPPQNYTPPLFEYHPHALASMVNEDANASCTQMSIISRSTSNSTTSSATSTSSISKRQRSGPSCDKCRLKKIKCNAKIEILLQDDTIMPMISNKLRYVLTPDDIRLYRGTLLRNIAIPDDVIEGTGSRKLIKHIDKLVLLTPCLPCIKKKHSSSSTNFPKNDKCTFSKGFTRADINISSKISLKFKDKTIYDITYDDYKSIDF
# Test: PBM E-score (8-mer binding enrichment) (E-score (-0.5 to 0.5)); higher = stronger / more preferred TF binding; most listed sequences are background and not binding sites
# Conditions: protein concentration: 200 nM; construct: GST-full length
# How it was run: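 Yeast transcription factors carrying a GST tag, as full-length proteins or DNA-binding domains, were produced by PURExpress in vitro transcription/translation. About 100-200 nM protein was applied to universal all-10-mer Agilent arrays, double-stranded by primer extension on fresh or once-stripped slides. Bound protein was detected with fluorescent anti-GST, and scans were normalised with masliner. The Universal PBM Analysis Suite gave each ungapped eight-base word, pooled with its reverse complement, an E-score, a modified Wilcoxon-Mann-Whitney statistic.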
row,Sequence,PBM E-score
1,TAAACAGA,0.183
2,ATCACCTA,-0.13
3,CATTCTGC,0.0201
4,GAGGATCC,-0.0628
5,GTCTCGTA,-0.0582
6,ACACATGC,-0.233
7,AATAGTTA,0.211
8,ACGCCTAC,-0.215
9,GAATGACC,0.0311
10,CCTTCCGC,0.0599
11,AATCGATA,0.114
12,AGGCACCA,-0.214
13,ACCGTTAT,-0.0558
14,ACTCATCA,0.0474
15,CCTCCAAG,-0.279
16,ATTAACAA,0.199
17,GAACACCA,-0.15
18,AGAGCCCG,-0.0964
19,TCGATAGA,-0.0381
20,TCATCAAA,-0.0315
21,TCGTTAAA,0.121
22,CACATCTC,0.0274
23,ACCCATCC,-0.189
24,CATTAGTA,0.0916
25,AAGTGGGG,-0.117

row,Sequence,PBM E-score
1,GAGCAATA,-0.0374
2,AGCACTTC,-0.16
3,GACCAGGA,-0.0983
4,TGGGTGAA,0.237
5,GCGGCTAA,0.0216
6,ACAGGAAT,-0.00619
7,AGGATAAG,-0.0672
8,CACCTGAG,-0.214
9,CGAATATC,0.0285
10,TAGCATGA,0.00304
11,TATTCTAA,0.0829
12,TTCATCAA,0.119
13,CGATCGAC,0.103
14,ATTCAATA,0.252
15,CTACTATC,0.312
16,ACGGGCAA,-0.0769
17,CAGACCCG,-0.0644
18,ATCAGTAC,0.0306
19,GTCTAAAC,0.17
20,CAATTCAG,-0.0802
21,TTCGTCAA,0.0374
22,CCCCATGC,-0.228
23,AAGAACGT,0.0715
24,ATCAACAT,0.179
25,CTAGCGAG,-0.222

row,Sequence,PBM E-score
1,AGGTAAGA,-0.00278
2,ATTTTCAC,0.152
3,TGCCTCCA,-0.295
4,CAGCGTGC,-0.155
5,CCAGTCCC,-0.199
6,AAGCCAAC,0.118
7,AATTATAG,0.257
8,GCGTATGA,-0.11
9,AACCAATG,0.0521
10,ATTACGCG,0.122
11,ACGTCATG,0.0136
12,ACCAGCGA,-0.0133
13,CGGGTAAC,-0.0778
14,GCAATCGA,-0.0369
15,ATCCTCAA,-0.0483
16,CAGCCGCA,-0.257
17,ACCTTTGA,0.0359
18,CTCGTTGA,-0.0496
19,TCCAATCA,-0.0517
20,AAATTAGA,0.182
21,CCATGTGA,-0.182
22,CACCGGAA,0.361
23,GAAAGTCC,0.326
24,ATTGACAG,-0.029
25,GAATTCAC,0.0262

row,Sequence,PBM E-score
1,GTATCCAA,-0.00514
2,GGAGGACC,-0.0788
3,TATTGGGA,0.103
4,AGATTTTA,0.161
5,AGACTCAG,-0.172
6,AGGACTGC,-0.334
7,CCCGATTA,0.119
8,CACCGATG,-0.0699
9,CTTCGGGC,-0.277
10,GGTACTAC,0.0945
11,GCGAAGCA,-0.0654
12,AGTGGCAT,-0.231
13,CCACTAAG,-0.0452
14,CGCAGTTC,0.0497
15,AGTAGCCC,-0.115
16,CGGACTAA,0.454
17,AGTTTTGC,0.237
18,AGGGATGG,-0.112
19,TAGCTAAA,0.0954
20,GGGAAGAC,-0.21
21,ACGACGCA,0.172
22,AATCCCCA,-0.171
23,CACACCAG,-0.21
24,CTGCACAG,-0.0731
25,CCGGAGAC,0.328

row,Sequence,PBM E-score
1,ACAGACCA,-0.0212
2,ATAGAACC,-0.0264
3,CAGAGGAC,-0.157
4,ACTAGTAT,0.22
5,GTGGGCGA,-0.14
6,GTATTCGA,-0.143
7,ACGGATCT,0.08
8,CCATGAAA,0.109
9,CTAGCCAC,-0.328
10,GCGTTGTA,0.0819
11,ACTGAAAA,0.202
12,ATCACCAG,-0.0754
13,GGTAGTCA,-0.176
14,CGCGGATA,0.187
15,ACGCCTCG,-0.115
16,CTTAGCTA,-0.0175
17,CTTCTCTC,-0.0216
18,TAAAGAAA,0.301
19,AGCTACGC,-0.142
20,ACGAACGC,0.101
21,ACGTTAGG,-0.1
22,AGTAGCAC,-0.176
23,TCATGGAA,0.0642
24,GGAACTCA,-0.0534
25,ACATGGGT,-0.0432

row,Sequence,PBM E-score
1,TCATAGGA,0.131
2,AAGGATAG,0.239
3,CTGACCGC,-0.114
4,ACAAGGGT,0.00132
5,AAAGTGAT,0.188
6,CACATTAA,0.133
7,TAGATCAA,0.069
8,CAATCTGG,-0.132
9,GATACCCA,-0.0714
10,AACGCTCC,-0.165
11,GACCCACC,-0.133
12,ACTAAAGC,0.0875
13,GCACGATA,0.0354
14,AAAGCGTA,-0.00747
15,ACCTCTCT,-0.237
16,ATCAGGCA,-0.0421
17,GCATGTAA,-0.126
18,AGCCTGAC,-0.0975
19,AAACAGCC,0.0135
20,ATGATTGG,0.112
21,GCTACGAA,-0.0184
22,ACTCATCC,0.023
23,CATACCTC,-0.0271
24,CACGTATA,0.154
25,CGTCCGGA,0.27

row,Sequence,PBM E-score
1,ACGTCTAT,-0.0918
2,CCTGGGCA,-0.221
3,ATTAAGCG,-0.00022
4,CATCGGAC,0.37
5,AGCTATGA,0.0408
6,AAATCTGA,0.0938
7,GCGGTGAA,-0.0961
8,TAACCTCA,0.0853
9,GGCAAACC,-0.0821
10,AGCGTTCA,-0.184
11,CCATCAAG,-0.155
12,ACCATCCA,-0.121
13,AGAAAACG,0.112
14,GGACTCCA,0.178
15,CCCCATGA,-0.145
16,CCGACACA,-0.0787
17,ATTATATA,0.337
18,AGGCCGCA,-0.245
19,CGATATCA,0.0495
20,GCCGGTGA,-0.00679
21,AATCGCCG,0.0778
22,CACCGTCC,-0.21
